Our source for the cell count values is the supplement of paper PMC4604168 (melanoma cell lines).

Some of the results follow. Single values are uncertain, as repeats are few or missing.
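Further: cell number obtained by counting DAPI-stained nuclei in high-throughput microscope images with image analysis software, screen run in 1,536-well plates.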

The assay concerns WM1745. Kind of assay: cell count relative to DMSO control; melanoma cells; higher = more viable cells. The following applies: library dose: low library concentration; 72 h.
For the compound `O=C1NC(=O)/C(=C/c2ccc(-c3ccc(F)cc3O)o2)S1` + O=C(Oc1ccc([N+](=O)[O-])cc1)N1CCC(C(O)(c2ccc3c(c2)OCO3)c2ccc3c(c2)OCO3)CC1 [JZL184] (first compound 1 µM, partner dose 1 µM), the cell count was 101%. The value for `O=C(O)c1ccc2c(c1)nc(Nc1cccc(Cl)c1)c1ccncc12` + C[As](C)SC[C@H](NC(=O)CC[C@H](N)C(=O)O)C(=O)NCC(=O)O [Darinaparsin] (first compound 0.4 µM, partner dose 0.4 µM) was 80.7%. Compound `CN1CCN(c2ccc3nc(-c4c(N)c5c(F)cccc5[nH]c4=O)[nH]c3c2)CC1` [Dovitinib] + C/C(O)=C(\C#N)C(=O)Nc1cc(Br)ccc1Br [LFM-A13] (first compound 0.1 µM, partner dose 2 µM) returned a cell count of 85.8%. The value for `O=C(O)c1ccc2c(c1)nc(Nc1cccc(Cl)c1)c1ccncc12` + Cc1cc(SCc2sc(-c3ccc(C(F)(F)F)c(F)c3)nc2C)ccc1OCC(=O)O [GW0742] (first compound 0.4 µM, partner dose 2 µM) was 92.5%; that for `CN1CCN(c2ccc3nc(-c4c(N)c5c(F)cccc5[nH]c4=O)[nH]c3c2)CC1` [Dovitinib] + C[As](C)SC[C@H](NC(=O)CC[C@H](N)C(=O)O)C(=O)NCC(=O)O [Darinaparsin] (first compound 0.1 µM, partner dose 0.4 µM) was 93.1%.

In the case of `Cc1cc(Nc2cc(N3CCN(C)CC3)nc(Sc3ccc(NC(=O)C4CC4)cc3)n2)n[nH]1` [Tozasertib] + N.N.[Cl][Pt][Cl] [cisplatin] (first compound 0.006 µM, partner dose 1.6 µM), the cell count worked out at 99.5%. With `CN1CCN(c2ccc3nc(-c4c(N)c5c(F)cccc5[nH]c4=O)[nH]c3c2)CC1` [Dovitinib] + O=C(Oc1ccc([N+](=O)[O-])cc1)N1CCC(C(O)(c2ccc3c(c2)OCO3)c2ccc3c(c2)OCO3)CC1 [JZL184] (first compound 0.1 µM, partner dose 1 µM) the figure was 76%; with `Clc1ccc(Nc2nnc(Cc3ccncc3)c3ccccc23)cc1` [vatalanib] + C/C(O)=C(\C#N)C(=O)Nc1cc(Br)ccc1Br [LFM-A13] (first compound 2 µM, partner dose 2 µM), 91.6%. With `CC(C)C[C@H](NC(=O)[C@H](Cc1ccccc1)NC(=O)c1cnccn1)B(O)O` [Bortezomib] + C[As](C)SC[C@H](NC(=O)CC[C@H](N)C(=O)O)C(=O)NCC(=O)O [Darinaparsin] (first compound 0.001 µM, partner dose 0.4 µM) the figure was 82.6%; with `Cc1cc([N+](=O)[O-])ccc1NS(=O)(=O)c1cc(Cl)ccc1Cl` + O=C(Oc1ccc([N+](=O)[O-])cc1)N1CCC(C(O)(c2ccc3c(c2)OCO3)c2ccc3c(c2)OCO3)CC1 [JZL184] (first compound 1 µM, partner dose 1 µM), 88.9%. With `Cc1cc(Nc2cc(N3CCN(C)CC3)nc(Sc3ccc(NC(=O)C4CC4)cc3)n2)n[nH]1` [Tozasertib] + Cn1cc(C2=C(c3cn(C4CCN(Cc5ccccn5)CC4)c4ccccc34)C(=O)NC2=O)c2ccccc21 [Enzastaurin] (first compound 0.006 µM, partner dose 0.8 µM) the figure was 79.1%; with `Cc1cc(Nc2cc(N3CCN(C)CC3)nc(Sc3ccc(NC(=O)C4CC4)cc3)n2)n[nH]1` [Tozasertib] + O=C(Oc1ccc([N+](=O)[O-])cc1)N1CCC(C(O)(c2ccc3c(c2)OCO3)c2ccc3c(c2)OCO3)CC1 [JZL184] (first compound 0.006 µM, partner dose 1 µM), 83.3%; with `Oc1cc(-c2nc(-c3ccccc3)[nH]c2-c2ccncc2)ccc1Cl` + C/C(O)=C(\C#N)C(=O)Nc1cc(Br)ccc1Br [LFM-A13] (first compound 0.2 µM, partner dose 2 µM), 89%. The compound `O=C(O)C(=O)Nc1sc2c(c1C(=O)O)CCNC2` + O=C(Oc1ccc([N+](=O)[O-])cc1)N1CCC(C(O)(c2ccc3c(c2)OCO3)c2ccc3c(c2)OCO3)CC1 [JZL184] (first compound 1.66667 µM, partner dose 1 µM) showed a cell count of 74.1%. The value for `C#Cc1cccc(Nc2ncnc3cc(OCCOC)c(OCCOC)cc23)c1` [erlotinib] + C[As](C)SC[C@H](NC(=O)CC[C@H](N)C(=O)O)C(=O)NCC(=O)O [Darinaparsin] (first compound 0.8 µM, partner dose 0.4 µM) was 84.9%. Compound `Clc1ccc(Nc2nnc(Cc3ccncc3)c3ccccc23)cc1` [vatalanib] + O=C(Oc1ccc([N+](=O)[O-])cc1)N1CCC(C(O)(c2ccc3c(c2)OCO3)c2ccc3c(c2)OCO3)CC1 [JZL184] (first compound 2 µM, partner dose 1 µM) showed a cell count of 91.8%. With `COc1cc2ncnc(Nc3ccc(Oc4ccccc4)cc3)c2cc1OC` + O=C(Oc1ccc([N+](=O)[O-])cc1)N1CCC(C(O)(c2ccc3c(c2)OCO3)c2ccc3c(c2)OCO3)CC1 [JZL184] (first compound 2 µM, partner dose 1 µM) the figure was 94.7%; with `Nc1ccn([C@@H]2O[C@H](CO)[C@@H](O)C2(F)F)c(=O)n1` [gemcitabine] + C[As](C)SC[C@H](NC(=O)CC[C@H](N)C(=O)O)C(=O)NCC(=O)O [Darinaparsin] (first compound 0.0004 µM, partner dose 0.4 µM), 68.2%. The value for `CC(C)C[C@H](NC(=O)[C@H](Cc1ccccc1)NC(=O)c1cnccn1)B(O)O` [Bortezomib] + O=C(Oc1ccc([N+](=O)[O-])cc1)N1CCC(C(O)(c2ccc3c(c2)OCO3)c2ccc3c(c2)OCO3)CC1 [JZL184] (first compound 0.001 µM, partner dose 1 µM) was 19.9%; that for `c1cc(-c2cnn3cc(-c4ccc(OCCN5CCCCC5)cc4)cnc23)ccn1` [Dorsomorphin] + O=C(Oc1ccc([N+](=O)[O-])cc1)N1CCC(C(O)(c2ccc3c(c2)OCO3)c2ccc3c(c2)OCO3)CC1 [JZL184] (first compound 0.4 µM, partner dose 1 µM) was 92.5%. The value for `Oc1cc(-c2nc(-c3ccccc3)[nH]c2-c2ccncc2)ccc1Cl` + O=C(Oc1ccc([N+](=O)[O-])cc1)N1CCC(C(O)(c2ccc3c(c2)OCO3)c2ccc3c(c2)OCO3)CC1 [JZL184] (first compound 0.2 µM, partner dose 1 µM) was 89.4%; that for `Nc1ccn([C@@H]2O[C@H](CO)[C@@H](O)C2(F)F)c(=O)n1` [gemcitabine] + C/C(O)=C(\C#N)C(=O)Nc1cc(Br)ccc1Br [LFM-A13] (first compound 0.0004 µM, partner dose 2 µM) was 68.7%; that for `CC(C)C[C@H](NC(=O)[C@H](Cc1ccccc1)NC(=O)c1cnccn1)B(O)O` [Bortezomib] + C/C(O)=C(\C#N)C(=O)Nc1cc(Br)ccc1Br [LFM-A13] (first compound 0.001 µM, partner dose 2 µM) was 77.7%. Compound `CO[C@H]1C[C@@H]2CC[C@@H](C)[C@@](O)(O2)C(=O)C(=O)N2CCCC[C@H]2C(=O)O[C@H]([C@H](C)C[C@@H]2CC[C@@H](OCCO)[C@H](OC)C2)CC(=O)[C@H](C)/C=C(\C)[C@@H](O)[C@@H](OC)C(=O)[C@H](C)C[C@H](C)/C=C/C=C/C=C/1C` [everolimus] + Cc1cc(SCc2sc(-c3ccc(C(F)(F)F)c(F)c3)nc2C)ccc1OCC(=O)O [GW0742] (first compound 0.02 µM, partner dose 2 µM) returned a cell count of 92.3%. With `Nc1ccn([C@@H]2O[C@H](CO)[C@@H](O)C2(F)F)c(=O)n1` [gemcitabine] + O=C(Oc1ccc([N+](=O)[O-])cc1)N1CCC(C(O)(c2ccc3c(c2)OCO3)c2ccc3c(c2)OCO3)CC1 [JZL184] (first compound 0.0004 µM, partner dose 1 µM) the figure was 57.3%; with `Cc1nc(Nc2ncc(C(=O)Nc3c(C)cccc3Cl)s2)cc(N2CCN(CCO)CC2)n1` [dasatanib] + Cc1cc(SCc2sc(-c3ccc(C(F)(F)F)c(F)c3)nc2C)ccc1OCC(=O)O [GW0742] (first compound 0.004 µM, partner dose 2 µM), 60.5%. `COCC[n+]1c2c(n(Cc3cnccn3)c1C)C(=O)c1ccccc1C2=O` + Cc1cc(SCc2sc(-c3ccc(C(F)(F)F)c(F)c3)nc2C)ccc1OCC(=O)O [GW0742] (first compound 0.0004 µM, partner dose 2 µM) returned a cell count of 111%.

Take `Cc1cc(Nc2cc(N3CCN(C)CC3)nc(Sc3ccc(NC(=O)C4CC4)cc3)n2)n[nH]1` [Tozasertib] + C/C(O)=C(\C#N)C(=O)Nc1cc(Br)ccc1Br [LFM-A13] (first compound 0.006 µM, partner dose 2 µM): the cell count came to 90.3%. On to `Cc1cc(Nc2cc(N3CCN(C)CC3)nc(Sc3ccc(NC(=O)C4CC4)cc3)n2)n[nH]1` [Tozasertib] + C[As](C)SC[C@H](NC(=O)CC[C@H](N)C(=O)O)C(=O)NCC(=O)O [Darinaparsin] (first compound 0.006 µM, partner dose 0.4 µM), for which the cell count was found to be 83.2%. On to `COc1ccc(COc2ccc(Cc3cnc(N)nc3N)cc2OC)cc1` + C/C(O)=C(\C#N)C(=O)Nc1cc(Br)ccc1Br [LFM-A13] (first compound 1 µM, partner dose 2 µM), for which the cell count is 87.8%. The value for `O=C(O)c1ccc2c(c1)nc(Nc1cccc(Cl)c1)c1ccncc12` + O=C(Oc1ccc([N+](=O)[O-])cc1)N1CCC(C(O)(c2ccc3c(c2)OCO3)c2ccc3c(c2)OCO3)CC1 [JZL184] (first compound 0.4 µM, partner dose 1 µM) was 105%.
